In US10745715B2, “Method and means for purifying retroviral vectors” (UCL BUSINESS PLC, priority 2014, dated 2020):

Test system: K562 cells
Test: Sorting of K562 cells expressing Flankedccstreptag formats with streptavidin beads
Type: cell-based
Procedure: Transduced K562 were close to 100% positive for the transgenes after transduction. Positive cells were mixed with non-transduced (NT) K562 pre-sorting. The mixture was incubated with both streptavidin dynabeads (Life technologies, Cat. No. 65601) and streptavidin-microbeads (Miltenyi, Cat. No. 130-048-101) as per manufacturer protocol. The sorted cellular fraction was collected as well as flow-through fraction for both protocols. Sorting was assessed by streptavidin-APC staining and for eGFP positive cell populations 9 days post sorting by flow cytometry.
To establish that the two versions of Flankedccstreptag are able to purify lentivirus from cellular supernatant, an initial experiment was carried out involving sorting of K562 cells expressing these tags on their surface using streptavidin beads. We reasoned that if the tags could attach to a streptavidin matrix while expressed on cells with sufficient stability to allow sorting of expressing cells, they should be suitable for lentiviral capture too.
K562 cells were retrovirally transduced to express the two tags and transduction efficiencies were determined by eGFP expression using flow cytometry (FIG. 4 Transduced K562 plot). Subsequently, transduced cells were mixed with non-transduced K562 to assess the efficiency of sorting using two streptavidin-beads sourced from Life technologies (Dynabeads) and Miltenyi (Microbeads). Sorting was performed as per manufacturer protocol. Sorted cell fractions were collected for both sorting for each epitope tag as well as their respective flow-through. […] Sorting with streptavidin microbeads from Miltenyi was successful.

B1: flankedccstreptag-L8: Flankedccstreptag on CD8 stalk, transmembrane and short endodomain (protein)
chain: MGTSLLCWMALCLLGADHADAECHPQGPPCIEGRKSGGGGSPAPRPPTPAPTIASQPLSLRPEACRPAAGGAVHTRGLDFACDIYIWAPLAGTCGVLLLSLVITLYCNHRNRRRVCKCPRPVV
modifications: Flankedccstreptag-L8 amino acid sequence
notes: Flankedccstreptag on CD8 stalk, transmembrane and short endodomain
binding efficiency to the streptavidin-APC stain (K562 cells, compared to flankedccstreptag-d8-x2-GPI): higher binding efficiency | sorting of tag-expressing K562 cells from mixture with NT K562 (streptavidin microbeads (Miltenyi)): successful | sorting of tag-expressing K562 cells from mixture with NT K562 (streptavidin-dynabeads (Life technologies), eGFP): successfully sorted
